About 65 (0.1%) of roughly 45,000 compounds were called active. Calls come from the whole dose curve; as a rule, active = well fitted activation curve with a large enough effect; inconclusive = small, poorly fitted or top-dose-only effect; inactive = no such curve, though single readings can be large or run the other way. This is one part of the list.
What follows are compounds tested against Galactocerebrosidase (Homo sapiens) (UniProt P54803) (assay: A Novel Cell-Based Assay to Identify Small Molecules for B -Galactocerebrosidase). Conditions: 145M-Twi-hGALC-G270D cells (Twitcher mouse brain line with human GALC G270D), HMU-beta-Gal fluorescence, 48 h; series mostly up to 57.5 µM; activation: at the top concentration.
Chain of UniProt P54803 (P54803 whole entry, looked up): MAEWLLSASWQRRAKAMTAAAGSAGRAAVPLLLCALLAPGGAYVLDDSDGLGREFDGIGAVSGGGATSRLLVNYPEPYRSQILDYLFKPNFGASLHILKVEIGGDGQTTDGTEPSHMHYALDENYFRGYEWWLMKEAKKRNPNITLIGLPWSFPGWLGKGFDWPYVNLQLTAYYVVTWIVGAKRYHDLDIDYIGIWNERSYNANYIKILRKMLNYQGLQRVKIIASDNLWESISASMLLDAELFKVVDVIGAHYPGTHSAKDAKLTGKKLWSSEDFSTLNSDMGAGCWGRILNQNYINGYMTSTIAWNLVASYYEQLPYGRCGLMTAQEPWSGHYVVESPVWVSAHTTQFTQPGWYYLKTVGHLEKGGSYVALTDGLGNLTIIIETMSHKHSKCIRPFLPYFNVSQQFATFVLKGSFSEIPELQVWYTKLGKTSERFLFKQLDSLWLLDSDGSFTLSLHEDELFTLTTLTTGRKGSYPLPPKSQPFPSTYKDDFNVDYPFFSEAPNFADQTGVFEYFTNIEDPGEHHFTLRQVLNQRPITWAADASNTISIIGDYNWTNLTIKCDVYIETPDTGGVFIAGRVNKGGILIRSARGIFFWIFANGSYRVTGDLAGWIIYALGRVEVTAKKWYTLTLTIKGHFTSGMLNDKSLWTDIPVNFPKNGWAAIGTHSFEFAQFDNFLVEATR
Method in brief: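 Brain-derived Twitcher mouse 145M-Twi cells stably expressing human GALC-G270D or wild-type GALC, treated live, then residual GALC activity read by fluorescence of HMU-b-Gal substrate (0.1 mM final) in citrate-phosphate buffer pH 5.2 with sodium taurocholate. Signal increase indicates enhancement.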
Note: 0% is about no effect; nearly all actives have a fitted effect of over 65% in size.

activation, inactive:
CCOC(=O)Cn1c(=O)n(-c2ccccc2OC)c2nc(-c3ccccc3C)nc(C(N)=O)c21 -32.6%
Cc1cccc(C(=O)Nc2ccccc2SCc2cc(=O)c3cccc(C)c3[nH]2)c1 -15.6%
COc1ccc(NC(=O)CCn2cccn2)cc1OC 1.56%
Cc1nnc(N2CCN(c3ccccc3F)CC2)c2c1nnn2Cc1ccccc1 -13.2%
CCOCCc1nn2c(=O)cc(COC(=O)C(CC)c3ccccc3)nc2s1 (configuration not stated) -11.4%
CCCn1cc(S(=O)(=O)c2ccc(CC)cc2)c(=O)c2ccccc21 -12.7%
CCCCc1nn2c(=O)cc(COC(=O)c3ccc(NC(=O)C4CCCCC4)cc3)nc2s1 -12.1%
Cc1ccc(Cn2c(=O)n(Cc3ccccc3Cl)c(=O)c3ccccc32)cc1 -20%
Cc1ccc(N(C)C(=O)C2CCCN(c3ncnc4c3nc3n4CCCCC3)C2)cc1C (configuration not stated) -11.4%
Cc1ccc2occ(-c3cc(-c4ccc(Cl)cc4)nc4c3COc3ccccc3-4)c(=O)c2c1 -12.5%
CCOc1ccc(NC(=O)Cn2c(=O)n(CCC(=O)NCCc3ccccc3)c(=O)c3ccccc32)cc1 3.34%
Cc1ccc(C(c2sc3nc(-c4ccco4)nn3c2O)N2CCN(Cc3ccccc3)CC2)cc1 (configuration not stated) -27.5%
COc1ccccc1CNC(=O)c1cnn2c(C)c(Cc3ccc(F)cc3)c(C)nc12 -14.4%
COc1cccc(C2CC(=O)Nc3c2c(=O)nc2c(C)cccn32)c1OC (configuration not stated) -10.7%
Cc1ccc(-c2nc3cc(Cl)ccc3o2)cc1NC(=O)COc1ccc(F)cc1 -6.53%
CC1=C(C(=O)OC2CCCC2)C(c2ccccc2Cl)CC(=O)N1 (configuration not stated) -25.3%
CCOC(=O)c1ccc(NC(=O)CN2C(=O)COc3ccc(Cl)cc32)cc1 -23.7%
CC1CCCN(CCCNC(=O)CN2C(=O)CSc3ccc(S(=O)(=O)N4CCOCC4)cc32)C1 (configuration not stated) 0.79%
COc1ccc(-c2nc3sc(CCNC(=O)C(=O)Nc4c(C)cccc4C)c(C)n3n2)cc1 -9.99%
Cc1c(C(=O)N2CCC(C)CC2)c(S(=O)(=O)N2CCN(c3ccc(Cl)cc3)CC2)c(C)n1C -12.3%
CCOc1ccccc1NC(=O)Cn1nnc(C(=O)Nc2ccc(C)c(C)c2)c1N -11.4%
Cn1nccc1C(=O)NCc1ccc2c(c1)CCN2C(=O)c1ccccc1 -14.8%
Cc1ccc(Cl)cc1N1CCN(C(=O)C2CCN(Cc3nc(-c4ccc(Cl)cc4)oc3C)CC2)CC1 -4.5%
CC(C)(C)OC(=O)N1CCC(c2c(C(=O)NC3CCCCC3)cnn2-c2cccc(Cl)c2)CC1 -22.9%
Cc1ccc(Cl)cc1N1CCN(S(=O)(=O)c2cc3[nH]c(=O)c(=O)[nH]c3cc2C)CC1 0.861%
O=C(Cn1c(=O)oc2cc(S(=O)(=O)NC3CCCC3)ccc21)Nc1ccc(F)c(F)c1 -42.5%
Cc1ccccc1CS(=O)(=O)Cc1ccc(C(=O)NCc2ccc(F)cc2)o1 -36.6%
COc1cccc(NC(=O)CCNC(=O)Cn2ccc3ccccc3c2=O)c1 4.54%
Cc1ccc(NC(=O)Cn2c(=O)ccc3cc(S(=O)(=O)N4CCC(C)CC4)ccc32)cc1Cl -11.3%
Cc1ccc(C)c(NC(=O)c2cc(=O)c3cc(C)cc(C)c3o2)c1 -13.2%
O=C1CC(c2ccc(Cl)cc2)N=C(NC(=O)c2ccccc2)N1 (configuration not stated) -5.2%
COCCNc1ncnc2c1c(-c1ccccc1)cn2-c1cccc(Cl)c1 -9.39%
COc1ccc(CNC(=O)C2CCN(S(=O)(=O)c3cccc4nonc34)CC2)cc1OC -6.02%
Cc1ccc(NC(=O)CSc2nnc(N)s2)c(C)c1 -16.4%
CCc1ccc(NCc2cc3cc4c(cc3n(CC(=O)Nc3ccc(F)cc3)c2=O)OCCO4)cc1 -3.34%
CC(C)C(=O)OCc1cc(=O)n2nc(C3CCCCC3)sc2n1 -21.2%
Cc1ccc(NC(=O)C2CCCN2S(=O)(=O)c2cccc3cccnc23)cc1C (configuration not stated) 1.27%
Cn1ccnc1SCC(=O)Nc1cc(Cl)ccc1Cl 5.85%
CCN(CC)c1ccc(C2C(C(N)=O)=C(C)Nc3ncnn32)cc1 (configuration not stated) 3.12%
CCCCNC(=O)CCc1c(C)nc2c(c(C)nn2-c2ccccc2)c1C -2.25%
Cn1c(=O)c2c(nc(SCC(=O)Nc3ccc(F)cc3)n2Cc2ccccc2)n(C)c1=O -8.88%
COc1ccc(NS(=O)(=O)c2ccc3[nH]c4c(c3c2)CCCCCC4)cc1 -17.3%
CCC(C(=O)Nc1ccc(C(C)=O)cc1)n1c(C)c2cnn(-c3ccccc3)c(=O)c2c1C (configuration not stated) -15.4%
Cc1cc(O)c(C(C)C)cc1Cl -10.5%
Fc1ccc(CNc2nc(-c3ccccc3)cc(C(F)(F)F)n2)cc1 -17.8%
COc1cccc(OCc2nc3ccccc3n2CCOc2cccc(C)c2)c1 -9.31%
Cc1ccccc1CN1CCCN(CC(=O)Nc2c(C)cccc2C)S1(=O)=O -10.3%
COc1ccccc1N1CCN(C(CNC(=O)C(=O)NCCc2ccccc2)c2cccnc2)CC1 (configuration not stated) -13.3%
O=C(NCCc1ccccc1)c1cc(Sc2ccc(F)cc2F)nc2ccccc12 -0.333%
Cc1cccc(CS(=O)(=O)c2ncc(Cl)c(C(=O)NCc3ccccc3)n2)c1 -33.2%
O=C(Nc1ccc(F)cc1F)c1ccc(-n2cnnc2)cc1 -15.2%
O=C(NCC12CC3CC(CC(C3)C1)C2)c1cc2nc(-c3ccc(F)cc3)cc(C(F)(F)F)n2n1 -12%
COc1ccc(-c2onc(C)c2C)cc1S(=O)(=O)NC1CCC(C)CC1 (configuration not stated) -3.69%
Cc1ccc(OCC(=O)Nc2ccc(C(=O)OCc3cc(=O)n4c(C)csc4n3)cc2)cc1 -11.3%
COc1cccc(-c2ccc3c(N)c(C(=O)Nc4ccc(C)c(F)c4)sc3n2)c1 -22%
COc1ccc(-c2cc(C(F)(F)F)nc(SCCC(=O)Nc3c(C)cccc3C)n2)cc1 1.51%
COc1cc(NC(=O)Cn2cc(S(=O)(=O)c3ccccc3)c(=O)c3ccccc32)cc(OC)c1 -0.61%
CCOc1cc(C2c3c(-c4ccccc4O)n[nH]c3C(=O)N2CCc2ccccc2)ccc1O (configuration not stated) -8.41%
CCc1ccc(C2c3c(oc4ccc(C)cc4c3=O)C(=O)N2c2nc(C)c(C)s2)cc1 (configuration not stated) -18.4%
CC(C)CNC(=O)C1=CC(c2ccc3c(c2)OCO3)=NS(=O)(=O)N1C -11.7%
COc1ccc(N2CCN(C(=O)Nc3cccc(C(F)(F)F)c3)CC2)cc1 -4.73%
Cc1ccc(Cn2c(CNC(=O)c3ccccc3Br)nc3cccnc32)cc1 -0.514%
